At least one peptide structure holds a part that was inferred or is arguable (an end, a ring closure or a residue). For at least one compound, name, drawing or mass did not settle the structure. Where a SMILES comes first, the peptide text is derived from it. Bridges are numbered along the chain shown (N, C = ends). Triazole bridges read from a SMILES are 1,4-linked. [ ]: non-standard residue; d: D form. Oic = O=C(O)[C@@H]1C[C@@H]2CCCC[C@@H]2N1; Dap(N3) = [N-]=[N+]=NC[C@H](N)C(=O)O; tBuAla = CC(C)(C)C[C@H](N)C(=O)O; Pen = CC(C)(S)[C@H](N)C(=O)O; Pra = C#CC[C@H](N)C(=O)O; Dab = NCC[C@H](N)C(=O)O; Dap = NC[C@H](N)C(=O)O; Ahx = NCCCCCC(=O)O; Sar = CNCC(=O)O
The molecules below were run on Human C3-DEPOSITION SERUM (assay: C3 deposition assay, human serum on mannan-coated plates). Conditions: Average IC50.
Assay type: biochemical
Method: 3. C3 Deposition Assay (Human, Rat, Mouse, Dog, Pig))
The C3 deposition assay was conducted essentially as described (reference). Multiwell plates (Greiner-Nunc 384 Maxi Sorp #464718) were coated over night with Mannan from Saccharomyces cerevisiae (Sigma M7504, 10 μg/mL in 0.05 M carbonate-bicarbonate buffer, pH 9.6) at 4° C. Wells were washed three times with TBS and subsequently incubated for 2 hours with 50 μL of 1% bovine serum albumin (BSA) in Tris-buffered saline (TBS) at 37° C. in order to block non-specific binding. After this step and each of the following incubation steps wells were washed three times with C3 wash buffer (TBS; 0.05% Tween 20; 5 mM CaCl2). […] When appropriately developed the color reaction was stopped by addition of 25 μL of stop solution (Sigma S5814) and quantified on a photometer by measuring absorption at a wavelength of 450 nm. Antibodies were diluted in C3 wash buffer supplemented with 0.5% BSA.

First: CC[C@H](C)[C@@H]1NC(=O)[C@H](CCN)NC(=O)[C@H](CN)NC(=O)[C@H]([C@@H](C)CC)NC(=O)[C@H]2NC(=O)[C@H]([C@@H](C)CC)NC(=O)[C@@H]3CCCN3C(=O)[C@@H]3CCCN3C(=O)[C@H](CC(C)(C)C)NC(=O)[C@H](CO)NC(=O)[C@H](CCCNC(=N)N)NC(=O)[C@H](CO)NC(=O)[C@H](CSSC2(C)C)NC1=O [Example 73] (cyclo(CSRS[tBuAla]PPI[Pen]I[Dap][Dab]I); disulfide 1-9)
Second: CC[C@H](C)[C@@H]1NC(=O)CNC(=O)CNC(=O)[C@H](C)NC(=O)[C@H](CC(=O)O)NC(=O)[C@@H]2CCCN2C(=O)[C@H]([C@@H](C)CC)NC(=O)[C@H]2NC(=O)[C@H]([C@@H](C)CC)NC(=O)[C@@H]3C[C@@H]4CCCC[C@@H]4N3C(=O)[C@@H]3CCCN3C(=O)[C@H](CC(C)C)NC(=O)[C@H](CO)NC(=O)[C@H](CCCNC(=N)N)NC(=O)[C@H](CO)NC(=O)[C@H](CSSC2(C)C)NC1=O [Example 92] (cyclo(AGGICSRSLP[Oic]I[Pen]IPD); disulfide 5-13)
The IC50 of the first is 2.3-fold lower: 48.2 nM for the first, 111 nM for the second. The first is the more potent here.

`CC[C@H](C)[C@@H]1NC(=O)[C@H](C)NC(=O)CCCCCNC(=O)CC[C@@H](C(N)=O)NC(=O)[C@@H]2CCCN2C(=O)[C@H]([C@@H](C)CC)NC(=O)[C@H]2NC(=O)[C@H]([C@@H](C)CC)NC(=O)[C@@H]3C[C@@H]4CCCC[C@@H]4N3C(=O)[C@@H]3CCCN3C(=O)[C@H](CC(C)C)NC(=O)[C@H](CO)NC(=O)[C@H](CCCNC(=N)N)NC(=O)[C@H](CO)NC(=O)[C@H](CSSC2(C)C)NC1=O` [Example 74] ([Ahx]AICSRSLP[Oic]I[Pen]IPE-NH2; disulfide 4-12; lactam N-15) and `CC[C@H](C)[C@@H]1NC(=O)[C@@H](C)NC(=O)CCCCCNC(=O)CC[C@@H](C(N)=O)NC(=O)[C@@H]2CCCN2C(=O)[C@H]([C@@H](C)CC)NC(=O)[C@H]2NC(=O)[C@H]([C@@H](C)CC)NC(=O)[C@@H]3C[C@@H]4CCCC[C@@H]4N3C(=O)[C@@H]3CCCN3C(=O)[C@H](CC(C)C)NC(=O)[C@H](CO)NC(=O)[C@H](CCCNC(=N)N)NC(=O)[C@H](CO)NC(=O)[C@H](CSSC2(C)C)NC1=O` [Example 79] ([Ahx][dA]ICSRSLP[Oic]I[Pen]IPE-NH2; disulfide 4-12; lactam N-15) are within 1.5-fold of each other in IC50: 14.3 nM for the first, 10.3 nM for the second.

Compared with `CC[C@H](C)[C@@H]1NC(=O)CCCCCNC(=O)CC[C@@H](C(N)=O)NC(=O)[C@@H]2CCCN2C(=O)[C@H]([C@@H](C)CC)NC(=O)[C@H]2NC(=O)[C@H]([C@@H](C)CC)NC(=O)[C@@H]3C[C@@H]4CCCC[C@@H]4N3C(=O)[C@@H]3CCCN3C(=O)[C@H](CC(C)C)NC(=O)[C@H](CO)NC(=O)[C@H](CCCNC(=N)N)NC(=O)[C@H](CO)NC(=O)[C@H](CSSC2(C)C)NC1=O` [Example 75] ([Ahx]ICSRSLP[Oic]I[Pen]IPE-NH2; disulfide 3-11; lactam N-14), `CC[C@H](C)[C@@H]1NC(=O)CNC(=O)CCCCCNC(=O)CC[C@@H](C(N)=O)NC(=O)[C@@H]2CCCN2C(=O)[C@H]([C@@H](C)CC)NC(=O)[C@H]2NC(=O)[C@H]([C@@H](C)CC)NC(=O)[C@@H]3C[C@@H]4CCCC[C@@H]4N3C(=O)[C@@H]3CCCN3C(=O)[C@H](CC(C)C)NC(=O)[C@H](CO)NC(=O)[C@H](CCCNC(=N)N)NC(=O)[C@H](CO)NC(=O)[C@H](CSSC2(C)C)NC1=O` [Example 83] ([Ahx]GICSRSLP[Oic]I[Pen]IPE-NH2; disulfide 4-12; lactam N-15) is 3.3-fold higher in IC50: 8.14 nM for the first, 26.5 nM for the second. The first is the more potent here.

`CC[C@H](C)[C@@H]1NC(=O)CNC(=O)CN(C)C(=O)CCCCCNC(=O)CC[C@@H](C(N)=O)NC(=O)[C@@H]2CCCN2C(=O)[C@H]([C@@H](C)CC)NC(=O)[C@H]2NC(=O)[C@H]([C@@H](C)CC)NC(=O)[C@@H]3C[C@@H]4CCCC[C@@H]4N3C(=O)[C@@H]3CCCN3C(=O)[C@H](CC(C)C)NC(=O)[C@H](CO)NC(=O)[C@H](CCCNC(=N)N)NC(=O)[C@H](CO)NC(=O)[C@H](CSSC2(C)C)NC1=O` [Example 76] ([Ahx][Sar]GICSRSLP[Oic]I[Pen]IPE-NH2; disulfide 5-13; lactam N-16) and `CC[C@H](C)[C@@H]1NC(=O)[C@H](C)NC(=O)CN(C)C(=O)CCCCCNC(=O)CC[C@@H](C(N)=O)NC(=O)[C@@H]2CCCN2C(=O)[C@H]([C@@H](C)CC)NC(=O)[C@H]2NC(=O)[C@H]([C@@H](C)CC)NC(=O)[C@@H]3C[C@@H]4CCCC[C@@H]4N3C(=O)[C@@H]3CCCN3C(=O)[C@H](CC(C)C)NC(=O)[C@H](CO)NC(=O)[C@H](CCCNC(=N)N)NC(=O)[C@H](CO)NC(=O)[C@H](CSSC2(C)C)NC1=O` [Example 77] ([Ahx][Sar]AICSRSLP[Oic]I[Pen]IPE-NH2; disulfide 5-13; lactam N-16) are within 1.5-fold of each other in IC50: 19.3 nM for the first, 19.9 nM for the second.

Compared with `CC[C@H](C)[C@@H]1NC(=O)[C@H](C)NC(=O)CNC(=O)[C@@H](N)Cn2cc(nn2)C[C@@H](C(N)=O)NC(=O)[C@@H]2CCCN2C(=O)[C@H]([C@@H](C)CC)NC(=O)[C@@H]2CSSC[C@H](NC1=O)C(=O)N[C@@H](CO)C(=O)N[C@@H](CCCNC(=N)N)C(=O)N[C@@H](CO)C(=O)N[C@@H](CC(C)(C)C)C(=O)N1CCC[C@H]1C(=O)N1CCC[C@H]1C(=O)N[C@@H]([C@@H](C)CC)C(=O)N2` [Example 81] (H-[Dap(N3)]GAICSRS[tBuAla]PPICIP[Pra]-NH2; triazole 1-16; disulfide 5-13), `CC[C@H](C)[C@@H]1NC(=O)CNC(=O)[C@@H](N)CCC(=O)NCCCC[C@@H](C(N)=O)NC(=O)[C@@H]2CCCN2C(=O)[C@H]([C@@H](C)CC)NC(=O)[C@H]2NC(=O)[C@H]([C@@H](C)CC)NC(=O)[C@@H]3C[C@@H]4CCCC[C@@H]4N3C(=O)[C@@H]3CCCN3C(=O)[C@H](CC(C)C)NC(=O)[C@H](CO)NC(=O)[C@H](CCCNC(=N)N)NC(=O)[C@H](CO)NC(=O)[C@H](CSSC2(C)C)NC1=O` [Example 90] (H-EGICSRSLP[Oic]I[Pen]IPK-NH2; lactam 1-15; disulfide 4-12) is 2.6-fold higher in IC50: 22.8 nM for the first, 58.6 nM for the second.

`CC[C@H](C)[C@@H]1NC(=O)[C@H](C)NC(=O)CNC(=O)CCCCCNC(=O)CC[C@@H](C(N)=O)NC(=O)[C@@H]2CCCN2C(=O)[C@H]([C@@H](C)CC)NC(=O)[C@H]2NC(=O)[C@H]([C@@H](C)CC)NC(=O)[C@@H]3C[C@@H]4CCCC[C@@H]4N3C(=O)[C@@H]3CCCN3C(=O)[C@H](CC(C)C)NC(=O)[C@H](CO)NC(=O)[C@H](CCCNC(=N)N)NC(=O)[C@H](CO)NC(=O)[C@H](CSSC2(C)C)NC1=O` [Example 82] ([Ahx]GAICSRSLP[Oic]I[Pen]IPE-NH2; disulfide 5-13; lactam N-16) and `CC[C@H](C)[C@@H]1NC(=O)[C@@H](C)NC(=O)CNC(=O)CCCCCNC(=O)CC[C@@H](C(N)=O)NC(=O)[C@@H]2CCCN2C(=O)[C@H]([C@@H](C)CC)NC(=O)[C@H]2NC(=O)[C@H]([C@@H](C)CC)NC(=O)[C@@H]3C[C@@H]4CCCC[C@@H]4N3C(=O)[C@@H]3CCCN3C(=O)[C@H](CC(C)C)NC(=O)[C@H](CO)NC(=O)[C@H](CCCNC(=N)N)NC(=O)[C@H](CO)NC(=O)[C@H](CSSC2(C)C)NC1=O` [Example 84] ([Ahx]G[dA]ICSRSLP[Oic]I[Pen]IPE-NH2; disulfide 5-13; lactam N-16) are within 1.5-fold of each other in IC50: 20.4 nM for the first, 25.6 nM for the second.

Going from `CC[C@H](C)[C@@H]1NC(=O)CNC(=O)[C@@H](N)CCC(=O)NCCCC[C@@H](C(N)=O)NC(=O)[C@H](CC(=O)O)NC(=O)[C@@H]2CCCN2C(=O)[C@H]([C@@H](C)CC)NC(=O)[C@H]2NC(=O)[C@H]([C@@H](C)CC)NC(=O)[C@@H]3C[C@@H]4CCCC[C@@H]4N3C(=O)[C@@H]3CCCN3C(=O)[C@H](CC(C)C)NC(=O)[C@H](CO)NC(=O)[C@H](CCCNC(=N)N)NC(=O)[C@H](CO)NC(=O)[C@H](CSSC2(C)C)NC1=O` [Example 91] (H-EGICSRSLP[Oic]I[Pen]IPDK-NH2; lactam 1-16; disulfide 4-12) to `CC[C@H](C)[C@@H]1NC(=O)CNC(=O)CNC(=O)[C@H](C)NC(=O)[C@@H](CC(=O)O)NC(=O)[C@@H]2CCCN2C(=O)[C@H]([C@@H](C)CC)NC(=O)[C@H]2NC(=O)[C@H]([C@@H](C)CC)NC(=O)[C@@H]3C[C@@H]4CCCC[C@@H]4N3C(=O)[C@@H]3CCCN3C(=O)[C@H](CC(C)C)NC(=O)[C@H](CO)NC(=O)[C@H](CCCNC(=N)N)NC(=O)[C@H](CO)NC(=O)[C@H](CSSC2(C)C)NC1=O` [Example 98] (cyclo(AGGICSRSLP[Oic]I[Pen]IP[dD]); disulfide 5-13), the IC50 rises from 147 nM to 357 nM (2.4-fold).

Going from `CC[C@H](C)[C@@H]1NC(=O)[C@@H]2CCCN2C(=O)[C@@H]2CCCN2C(=O)[C@H]([C@@H](C)CC)NC(=O)[C@H](CO)NC(=O)[C@H](CCCCN)NC(=O)[C@H]([C@@H](C)O)NC(=O)[C@@H]2CSSC[C@H](NC1=O)C(=O)N[C@@H](Cc1ccccc1)C(=O)N1CCC[C@H]1C(=O)N[C@@H](CC(=O)O)C(=O)NCC(=O)N[C@@H](CCCNC(=N)N)C(=O)N2` [Ref. No 2, reference compound] to `CC[C@H](C)[C@@H]1NC(=O)[C@@H]2CCCN2C(=O)[C@@H]2CCCN2C(=O)[C@H]([C@@H](C)CC)NC(=O)[C@@H]2CSSC[C@H](NC(=O)[C@H]([C@@H](C)O)NC(=O)[C@H](CCCCN)NC(=O)[C@H](CO)NC1=O)C(=O)N[C@@H](CCCNC(=N)N)C(=O)NCC(=O)N[C@@H](CC(=O)O)C(=O)N1CCC[C@H]1C(=O)N[C@@H](Cc1ccccc1)C(=O)N2` [Ref. No 12, reference compound] (cyclo(RGDPFCIPPISKTC); disulfide 6-14), the IC50 falls from > 500000 nM to 50000 nM.

Source: patent US20240010684A1, “MASP INHIBITORY COMPOUNDS AND USES THEREOF” (BAYER AKTIENGESELLSCHAFT, priority 2020, published 2024)
